Measured values as given in patent US9340590B2 (priority 2011, dated 2016).
Part of at least one peptide drawing is inferred or uncertain, most often the ends. Positions of bridges follow the written chain, without caps; N, C: chain ends. Residues, ends and D or L forms follow the SMILES beside them.

Key:
Format in all cases: cell-based
[1] = target: hNav1.3 (Homo sapiens, UniProt Q9NY46); settings: read-out: Nav1.3 Use IC50
[2] = target: hNav1.4 (Homo sapiens, UniProt P35499); settings: read-out: Nav1.4 Use IC50
[3] = target: hNav1.5 (Homo sapiens, UniProt Q14524); settings: read-out: Nav1.5 Use IC50
[4] = target: hNav1.7 (Homo sapiens, UniProt Q15858)
hNav1.7, sequence (Q15858 whole entry, looked up): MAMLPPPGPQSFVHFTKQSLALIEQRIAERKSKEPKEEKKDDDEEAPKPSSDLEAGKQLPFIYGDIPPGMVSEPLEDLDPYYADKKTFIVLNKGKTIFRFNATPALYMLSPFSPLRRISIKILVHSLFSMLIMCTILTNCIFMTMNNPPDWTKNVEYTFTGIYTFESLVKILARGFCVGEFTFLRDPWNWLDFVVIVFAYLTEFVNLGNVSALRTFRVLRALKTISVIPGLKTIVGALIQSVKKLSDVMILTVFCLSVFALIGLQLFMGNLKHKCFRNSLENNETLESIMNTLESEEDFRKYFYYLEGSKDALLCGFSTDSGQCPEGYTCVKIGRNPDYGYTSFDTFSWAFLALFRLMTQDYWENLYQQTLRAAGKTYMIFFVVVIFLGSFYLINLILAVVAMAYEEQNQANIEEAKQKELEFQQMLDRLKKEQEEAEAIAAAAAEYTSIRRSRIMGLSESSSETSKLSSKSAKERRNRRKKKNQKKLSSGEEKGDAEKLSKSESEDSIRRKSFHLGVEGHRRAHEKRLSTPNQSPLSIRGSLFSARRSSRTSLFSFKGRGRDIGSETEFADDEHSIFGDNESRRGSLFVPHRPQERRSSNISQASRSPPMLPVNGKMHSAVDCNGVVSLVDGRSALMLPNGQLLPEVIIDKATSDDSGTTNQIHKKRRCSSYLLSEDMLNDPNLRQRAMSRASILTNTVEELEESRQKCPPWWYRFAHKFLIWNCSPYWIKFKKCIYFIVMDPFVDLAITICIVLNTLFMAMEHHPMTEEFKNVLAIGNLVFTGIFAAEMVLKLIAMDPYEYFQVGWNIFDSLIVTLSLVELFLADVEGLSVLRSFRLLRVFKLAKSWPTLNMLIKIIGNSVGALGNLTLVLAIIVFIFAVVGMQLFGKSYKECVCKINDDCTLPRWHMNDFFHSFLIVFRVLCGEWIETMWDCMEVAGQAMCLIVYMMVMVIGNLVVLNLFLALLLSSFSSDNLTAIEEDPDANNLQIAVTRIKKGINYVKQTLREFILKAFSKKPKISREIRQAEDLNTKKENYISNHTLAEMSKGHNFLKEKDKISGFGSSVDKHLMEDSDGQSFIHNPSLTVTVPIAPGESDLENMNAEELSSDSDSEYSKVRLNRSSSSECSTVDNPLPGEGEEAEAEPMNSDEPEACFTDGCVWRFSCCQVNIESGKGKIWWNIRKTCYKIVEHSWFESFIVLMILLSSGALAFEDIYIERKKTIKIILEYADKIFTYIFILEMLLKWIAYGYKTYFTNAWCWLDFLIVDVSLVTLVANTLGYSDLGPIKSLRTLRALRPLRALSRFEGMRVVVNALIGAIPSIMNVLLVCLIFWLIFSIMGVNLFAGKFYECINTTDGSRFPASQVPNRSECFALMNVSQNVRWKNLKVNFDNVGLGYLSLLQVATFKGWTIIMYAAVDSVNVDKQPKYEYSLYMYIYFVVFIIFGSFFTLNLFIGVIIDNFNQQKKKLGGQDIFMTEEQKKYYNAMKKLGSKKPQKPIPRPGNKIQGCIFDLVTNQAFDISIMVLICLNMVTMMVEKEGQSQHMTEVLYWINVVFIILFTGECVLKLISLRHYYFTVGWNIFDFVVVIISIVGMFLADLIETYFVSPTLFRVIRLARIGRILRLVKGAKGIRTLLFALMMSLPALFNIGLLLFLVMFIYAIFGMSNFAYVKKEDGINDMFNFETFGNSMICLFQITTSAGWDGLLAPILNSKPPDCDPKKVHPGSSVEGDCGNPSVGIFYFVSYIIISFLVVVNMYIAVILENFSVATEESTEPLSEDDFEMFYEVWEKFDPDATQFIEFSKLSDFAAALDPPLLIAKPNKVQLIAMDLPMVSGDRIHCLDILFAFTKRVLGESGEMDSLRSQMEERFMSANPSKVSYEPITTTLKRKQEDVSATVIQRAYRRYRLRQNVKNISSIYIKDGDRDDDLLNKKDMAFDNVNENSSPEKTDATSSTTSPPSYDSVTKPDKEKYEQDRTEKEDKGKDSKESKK

hNav1.5, sequence (Q14524 whole entry, looked up): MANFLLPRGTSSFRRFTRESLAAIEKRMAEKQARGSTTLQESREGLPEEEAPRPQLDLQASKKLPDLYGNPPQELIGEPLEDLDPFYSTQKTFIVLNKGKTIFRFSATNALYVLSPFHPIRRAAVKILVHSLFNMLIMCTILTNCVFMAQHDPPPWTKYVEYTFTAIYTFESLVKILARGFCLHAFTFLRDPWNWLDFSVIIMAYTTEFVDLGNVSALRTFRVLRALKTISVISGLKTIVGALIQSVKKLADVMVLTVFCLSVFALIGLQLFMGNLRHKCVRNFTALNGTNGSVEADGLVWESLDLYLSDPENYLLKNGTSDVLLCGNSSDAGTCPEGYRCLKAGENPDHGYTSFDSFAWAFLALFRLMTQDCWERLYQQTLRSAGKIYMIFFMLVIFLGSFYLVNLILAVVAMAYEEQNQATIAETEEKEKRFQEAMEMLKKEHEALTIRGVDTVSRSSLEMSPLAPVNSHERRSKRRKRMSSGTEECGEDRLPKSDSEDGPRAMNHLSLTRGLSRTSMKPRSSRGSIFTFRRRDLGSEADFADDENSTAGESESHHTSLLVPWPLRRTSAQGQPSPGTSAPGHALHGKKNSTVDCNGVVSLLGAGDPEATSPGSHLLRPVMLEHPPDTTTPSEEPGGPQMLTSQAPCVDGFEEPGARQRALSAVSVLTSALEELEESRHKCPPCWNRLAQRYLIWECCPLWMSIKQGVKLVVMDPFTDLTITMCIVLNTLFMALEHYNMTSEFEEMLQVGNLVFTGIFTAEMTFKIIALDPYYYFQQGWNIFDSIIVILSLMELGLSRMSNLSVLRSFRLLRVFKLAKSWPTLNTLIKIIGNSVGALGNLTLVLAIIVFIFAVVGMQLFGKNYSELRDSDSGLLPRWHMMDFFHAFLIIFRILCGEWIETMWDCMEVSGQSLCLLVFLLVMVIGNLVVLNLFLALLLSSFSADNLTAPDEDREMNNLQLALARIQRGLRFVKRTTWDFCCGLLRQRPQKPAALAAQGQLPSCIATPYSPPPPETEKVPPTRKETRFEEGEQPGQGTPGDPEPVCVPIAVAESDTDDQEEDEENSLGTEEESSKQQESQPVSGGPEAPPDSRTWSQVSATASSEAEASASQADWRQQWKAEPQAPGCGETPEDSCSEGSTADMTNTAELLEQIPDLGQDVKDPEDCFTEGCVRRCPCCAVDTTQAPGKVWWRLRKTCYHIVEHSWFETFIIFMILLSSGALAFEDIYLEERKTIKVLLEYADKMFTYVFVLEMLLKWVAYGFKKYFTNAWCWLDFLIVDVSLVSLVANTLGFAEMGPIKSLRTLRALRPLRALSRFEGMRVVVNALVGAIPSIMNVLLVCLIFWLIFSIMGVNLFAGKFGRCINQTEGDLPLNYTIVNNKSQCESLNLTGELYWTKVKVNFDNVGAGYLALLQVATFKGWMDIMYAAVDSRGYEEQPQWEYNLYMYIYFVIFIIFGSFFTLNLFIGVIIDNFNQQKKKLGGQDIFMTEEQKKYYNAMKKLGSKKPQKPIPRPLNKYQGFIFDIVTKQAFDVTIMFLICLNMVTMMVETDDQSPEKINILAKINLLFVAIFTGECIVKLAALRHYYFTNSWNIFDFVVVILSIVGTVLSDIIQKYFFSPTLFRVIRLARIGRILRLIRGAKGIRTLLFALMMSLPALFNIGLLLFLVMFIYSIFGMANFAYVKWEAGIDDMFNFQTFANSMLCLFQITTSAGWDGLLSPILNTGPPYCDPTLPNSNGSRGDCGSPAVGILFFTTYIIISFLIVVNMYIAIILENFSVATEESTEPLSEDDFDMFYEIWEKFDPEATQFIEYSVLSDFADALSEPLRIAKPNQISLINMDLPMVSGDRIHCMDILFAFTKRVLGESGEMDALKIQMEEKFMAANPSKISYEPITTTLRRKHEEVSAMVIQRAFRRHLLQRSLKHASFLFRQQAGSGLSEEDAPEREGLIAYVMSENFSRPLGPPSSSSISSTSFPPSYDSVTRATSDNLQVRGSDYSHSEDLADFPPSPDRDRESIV

Compound	IC50 [1] [nM]	IC50 [2] [µM]	IC50 [3] [µM]	Nav1.4/Nav1.7 Use [4]	Nav1.5/Nav1.7 Use [4]	IC50 ([4]; read-out: Nav1.7 Use IC50) [nM]
CSCC[C@@H]1NC(=O)CNC(=O)[C@H](CCC(=O)O)NC(=O)[C@@H]2CSSC[C@H](NC(=O)[C@@H](N)Cc3ccc(O)cc3)C(=O)N[C@@H](CCC(N)=O)C(=O)N[C@@H](CCCCN)C(=O)N[C@@H](Cc3c[nH]c4ccccc34)C(=O)N[C@@H](CCSC)C(=O)N[C@@H](Cc3c[nH]c4ccccc34)C(=O)N[C@@H]([C@@H](C)O)C(=O)N[C@H]3CSSC[C@H](NC(=O)[C@H](C(C)C)NC1=O)C(=O)N[C@@H](CCCNC(=N)N)C(=O)N[C@@H](CC(C)C)C(=O)N[C@@H](Cc1c[nH]c4ccccc14)C(=O)N[C@H](C(=O)N[C@@H](CCCCN)C(=O)N[C@@H](CCCCN)C(=O)N[C@@H](CCCCN)C(=O)N[C@@H](CC(C)C)C(=O)N[C@@H](Cc1c[nH]c4ccccc14)C(=O)O)CSSC[C@H](NC(=O)[C@H](CCCCN)NC(=O)[C@H](CCCNC(=N)N)NC(=O)[C@H](CCC(=O)O)NC(=O)[C@H](CO)NC(=O)[C@H](CC(=O)O)NC3=O)C(=O)N2 [ProTxlI]	15	0.032	0.104	–	–	–
CC(C)C[C@H](NC(=O)[C@H](CCCCN)NC(=O)[C@H](Cc1c[nH]c2ccccc12)NC(=O)[C@H](CCCCN)NC(=O)[C@@H]1CSSC[C@@H]2NC(=O)[C@H](CCC(=O)O)NC(=O)[C@H](CC(N)=O)NC(=O)[C@H](CCCCN)NC(=O)CNC(=O)[C@@H]3CCCN3C(=O)[C@H]([C@@H](C)O)NC(=O)[C@@H]3CSSC[C@H](NC(=O)[C@H](C(C)C)NC(=O)[C@H](CCCNC(=N)N)NC(=O)[C@H](CC(N)=O)NC(=O)[C@@H]4CCCN4C(=O)[C@H](CSSC[C@H](NC(=O)[C@H](C)N)C(=O)N[C@@H](CCCCN)C(=O)NCC(=O)N[C@@H](C(C)C)C(=O)N[C@@H](Cc4ccccc4)C(=O)N[C@@H](CC(=O)O)C(=O)N[C@@H](C)C(=O)N3)NC2=O)C(=O)N[C@@H](CO)C(=O)N[C@@H](CC(=O)O)C(=O)N[C@@H](CCCCN)C(=O)N[C@@H](Cc2cnc[nH]2)C(=O)N[C@@H](CCCCN)C(=O)N[C@@H](Cc2c[nH]c3ccccc23)C(=O)N1)C(=O)O [Huwentoxin-I] (H-ACKGVFDACTPGKNECCPNRVCSDKHKWCKWKL-OH; disulfide 2-17, 9-22, 16-29)	905	24.9	> 30	–	–	–
CC(C)C[C@@H]1NC(=O)[C@@H](NC(=O)[C@@H](N)CC(=O)O)CSSC[C@@H]2NC(=O)[C@@H]3CSSC[C@@H](C(=O)N[C@@H](CCCCN)C(=O)N[C@@H](Cc4ccc(O)cc4)C(=O)N[C@H](C(=O)N[C@@H](Cc4ccccc4)C(N)=O)C(C)C)NC(=O)[C@H](Cc4c[nH]c5ccccc45)NC(=O)[C@H](CCCNC(=N)N)NC(=O)[C@H](Cc4c[nH]cn4)NC(=O)[C@H](CC(C)C)NC(=O)[C@H](CCCNC(=N)N)NC(=O)[C@H](CO)NC(=O)[C@H](CSSC[C@H](NC(=O)[C@H](CCCCN)NC(=O)[C@H](CCCNC(=N)N)NC(=O)[C@H](Cc4ccccc4)NC(=O)[C@H](C)NC(=O)CNC1=O)C(=O)N[C@@H](CCC(=O)O)C(=O)N1CCC[C@H]1C(=O)N[C@@H](CC(=O)O)C(=O)N[C@@H](Cc1cn(CCOCCOCCOCCNC(=O)CSCCO)nn1)C(=O)N[C@@H](CC(=O)O)C(=O)N[C@@H](CCCCN)C(=O)N3)NC(=O)[C@H](C(C)C)NC(=O)[C@H](CC(C)C)NC(=O)[C@H](CC(N)=O)NC(=O)[C@@H]1CCCN1C(=O)[C@H](CCCNC(=N)N)NC2=O	–	5.95	> 10	458	>769	13
